# Source: PubChem BioAssay AID624296 (National Center for Advancing Translational Sciences (NCATS), 2012)
# Screen size: about 350,000 compounds; about 9,900 (2.8%) were called active. The shares of active, inactive and inconclusive entries below differ from those in the screen. Calls come from the whole dose curve; as a rule, active = well fitted activation curve with a large enough effect; inconclusive = small, poorly fitted or top-dose-only effect; inactive = no such curve, though single readings can be large or run the other way. No potency is given beside an inconclusive call; the fits are too rough.
# Assay: A quantitative high throughput screen for small molecules that induce DNA re-replication in MCF 10a normal breast cells. For activity, positive = re-replication: % of control where 0% means no effect. Note: nearly all actives have a fitted effect of over 50% in size.
# Conditions: MCF 10A DNA re-replication, Hoechst nuclear intensity, 48 h; activity, positive = re-replication: at 46.1 µM (top of the series)
# Potency is the fitted concentration of half-maximal effect; tags give direction and shape of the fitted curve.
SMILES,Potency,"activity, positive = re-replication"
Cc1ccccc1NS(=O)(=O)c1cc(C(=O)NCCC2=CCCCC2)ccc1Cl,"inconclusive [activator, single point]",–
COC(=O)C1=CN(c2cccc(Cl)c2)C=C(C(=O)OC)C1c1cccc(OC)c1,"inconclusive [activator, single point]",–
Cc1ccccc1CC1(CO)CCCN(C(=O)c2ccc3ncccc3c2)C1 (configuration not stated),"inconclusive [activator, single point]",–
N#CC1=C2N=C(N)c3ccccc3N2C2=C(C(=O)CCC2)C1c1ccc(Cl)cc1 (configuration not stated),"inconclusive [activator, partial curve, poor fit]",–
COC(=O)[C@@]12CCCCN1[C@H](c1ccc(-c3ccccc3)cc1)[C@@H]1C(=O)N(C)C(=O)[C@@H]12,"inconclusive [activator, partial curve, poor fit]",–
N/C(COc1cc(Cl)cc(Cl)c1)=N\O,–,inactive: -2.63%
CCOC(=O)N1CCC(N2C(=O)c3ccc(C(=O)Nc4ccc(OC)c(OC)c4)cc3C2=O)CC1,–,inactive: 1.67%
Cc1cc(N2CCOCC2)n2nc(-c3cccc(F)c3)cc2n1,"inconclusive [activator, single point]",–
CCCC1=C(C(=O)OCC)C(/C=C/c2ccccc2)n2ncnc2N1 (configuration not stated),"inconclusive [activator, full curve]",–
COc1cccc(CNC(=O)C2CCCN(S(=O)(=O)c3c(C)noc3/C=C/N(C)C)C2)c1 (configuration not stated),"inconclusive [activator, single point]",–
Cc1[nH]c2ccccc2c1C(=O)C(=O)N1CCN(c2cccc(Cl)c2)CC1,active: 20.6 µM,–
COc1ccc(C(CCN(Cc2ccc(OC)c(OC)c2)C(C)=O)c2ccccc2)cc1 (configuration not stated),"inconclusive [activator, partial curve, poor fit]",–
Cc1cc(Br)ccc1OCC(=O)N(Cc1nc(-c2ccccc2)no1)C(C)C,active: 18.4 µM,–
Clc1ccc(-c2nc3ccccc3nc2-c2ccccc2)cc1,"inconclusive [activator, partial curve, poor fit]",–
Cc1ccccc1OCC(=O)Nc1cccc2nsnc12,"inconclusive [activator, single point]",–
O=S(=O)(c1cccc(-c2nc3ccccc3s2)c1)N1CCOCC1,–,inactive: 19%
c1ccc(CSCc2cn3ccsc3n2)cc1,"inconclusive [activator, partial curve, poor fit]",–
COc1ccc(-c2nc(CN3CCN(C(=O)c4ccco4)CC3)c(C)o2)c(OC)c1C,"inconclusive [activator, partial curve, poor fit]",–
Clc1ccccc1N1CCN(Cc2c[nH]c3ccccc23)CC1,"inconclusive [activator, partial curve, poor fit]",–
Cc1cc(C2(c3ccc(O)c(C)c3)C(=O)Nc3ccccc32)ccc1O,"inconclusive [activator, single point]",–
CN(CC(=O)Nc1ccc(Cl)c(C(F)(F)F)c1)C(=O)C1(c2ccccc2)CC1,"inconclusive [activator, single point]",–

SMILES,Potency,"activity, positive = re-replication"
CCn1c(C)nc2cc(C(=O)N/N=C/c3ccccc3)ccc21,–,inactive: -7.62%
CC1S/C(=N\N=C\c2cccc([N+](=O)[O-])c2)N(C(C)(C)C)C1=O (configuration not stated),"inconclusive [activator, partial curve, poor fit]",–
COc1cccc(-n2sc3c(c2=S)-c2cc(OC)ccc2NC3(C)C)c1,"inconclusive [activator, full curve]",–
CCCCCCCCCCCCCCCC(=O)OCC1OC(n2ccc(N)nc2=O)C(O)C1O (configuration not stated),–,inconclusive: 22.4% [activator]
Nc1nonc1C(=O)NCCNS(=O)(=O)c1ccc(Br)cc1,active: 18.4 µM,–
CN1CCCc2cc3c(C(F)(F)F)cc(=O)oc3nc21,"inconclusive [activator, partial curve, poor fit]",–
CCOc1ccc(NC(=O)CN(c2cccc(C(F)(F)F)c2)S(C)(=O)=O)cc1,"inconclusive [activator, single point]",–
O=C(CCSc1ccccc1)N1CCCC1,"inconclusive [activator, full curve, poor fit]",–
CCOC(=O)c1c(N)sc2c1CCC(CC)C2 (configuration not stated),"inconclusive [activator, single point]",–
CCCCOP(=O)(OCCCC)C(Nc1ccccc1)c1ccc2c(c1)OCO2 (configuration not stated),"inconclusive [activator, single point]",–
Cc1cc(C)cc(NC(=O)c2cccn2-c2ncc(C(F)(F)F)cc2Cl)c1,"inconclusive [activator, single point]",–
COC(=O)c1ccc(CN2CCC(Oc3cccc(C(=O)N4CCOCC4)c3)CC2)cc1,–,inactive: 20.2%
Cc1ccc(NC(=O)CN(C)CC(=O)N(C)Cc2ccccc2)cc1,–,inactive: -2.3%
Cc1ccc(C(=O)Nn2cnnc2)cc1,–,inactive: -9.09%
O=C(C1CCCN(c2ncnc3c2nc2n3CCCCC2)C1)N1CCCCC1 (configuration not stated),–,inactive: 12.5%
CCOCCCNC(=O)/C(C#N)=C/c1cc(Br)c(O)c(Br)c1,active: 11.6 µM,–
CCCNC(=O)Cn1cnc2sc(C(=O)N3CCN(Cc4ccc5c(c4)OCO5)CC3)c(C)c2c1=O,–,inactive: -3.16%
O=C(/C=C/c1cccs1)N1CCc2ccccc21,"inconclusive [activator, single point]",–
CCCc1cc(C(=O)Nc2sc3c(c2C#N)CCC3)no1,"inconclusive [activator, partial curve]",–
COC(=O)[C@]1(Cc2ccccc2)N[C@H](CN(C)S(=O)(=O)c2ccc(C(C)(C)C)cc2)[C@@H]2C(=O)N(Cc3ccccc3)C(=O)[C@@H]21,"inconclusive [activator, partial curve, poor fit]",–
CC1(C)Cc2c(sc3nc(-c4ccccc4)n(N)c(=O)c23)CO1,"inconclusive [activator, full curve, poor fit]",–
